# Experimental data from patent US5773424A, “Treatment of toxoplasmosis” (priority 1994, dated 1998).
# “Also recorded” adds a separate entry of the source. For some assays here: At least one structure is not confirmed: it was looked up by name or label, or the drawing left a doubt. Some of these results come from one statement about several compounds together.
# Assays:
# [1] = tested on: Toxoplasma gondii grown in human fibroblasts; assay: Incorporation of radiolabeled uracil (parasite survival); type: cell-based; conditions: in vitro
# Procedure: Incorporation of Radiolabeled Uracil. […] Uptake and incorporation of radiolabeled uracil into nucleic acids of T. gondii were carried out, at least in triplicates, in tissue culture, using monolayers of human foreskin fibroblasts infected with T. gondii. The fibroblasts were cultured in no more than 30 passages in Dulbecco's modified Eagle medium, containing 100 units/mL penicillin G and 100 μg/mL streptomycin sulfate, and 10% FBS, pH 7.2. Briefly, confluent cells (4-5 day incubation) were cultured for 24 hours in the 24-well flat bottom microtiterplates (~5×10^5 /1 mL/well) and incubated at 37° C. in 5% CO2, 95% air to allow the cells to attach. The medium was then removed and the cells were infected with isolated T. gondii in medium with 3% FBS (1 parasite/cell). After 1 hour incubation, the cultures were washed with media with 10% FBS to remove extracellular parasites. FBS was maintained at a final concentration of 10%. […] After an additional 18 hours incubation, the medium was replaced with 1 mL drug free media containing […] (2 μCi/mL) and incubated for another 6 hours, after which the media was removed. The fibroblasts were released from the wells by trypsinization with the addition of 200 μL trypsin/EDTA (2.5×) to each well. After 10 minutes incubation, 1 mL of ice cold 10% trichloroacetic acid (TCA) was added to each well. The plates were then placed on a shaker to insure the detachment of the cells. The suspended contents of each well were filtered through GF/A 2.4 cm glass microfiber filters (Whatman, Hillsboro, Oreg.), which were prewashed each with 1 mL double distilled H2 O and dried. After filtration, the filters were washed with 10 mL methanol, left to dry, and then placed in scintillation vials containing 5 mL of Econo-Safe scintillation fluor (Research Products International Corp., Mount Prospect, Ill.), and radioactivity was counted using an LS5801 Beckman scintillation counter.
# T. gondii GPRTase = assay: Phosphoribosyltransferase assay, guanine as substrate (apparent Ki); type: biochemical, Toxoplasma gondii; conditions: competition studies between substrates
# [2] = tested on: extracts of Toxoplasma gondii; assay: Inhibition of phosphorylation of NBMPR (formation of NBMPR-P); type: biochemical
# Procedure: (§1) Enzyme assay. […] Incubation was carried out at 37° C.
# [3] = tested on: extracts of Toxoplasma gondii; assay: Inhibition of phosphorylation of adenosine (or inosine) to nucleoside 5'-monophosphate; type: biochemical
# Procedure: as §1
# [4] = tested on: extracts from human liver; assay: Inhibition of phosphorylation of adenosine; type: biochemical
# Procedure: as §1
# [5] = tested on: extracts from mouse liver; assay: Inhibition of phosphorylation of adenosine; type: biochemical
# Procedure: as §1
# [6] = target: T. gondii adenosine kinase (Toxoplasma gondii, UniProt Q9TVW2)
# Chain of T. gondii adenosine kinase (Q9TVW2 whole entry): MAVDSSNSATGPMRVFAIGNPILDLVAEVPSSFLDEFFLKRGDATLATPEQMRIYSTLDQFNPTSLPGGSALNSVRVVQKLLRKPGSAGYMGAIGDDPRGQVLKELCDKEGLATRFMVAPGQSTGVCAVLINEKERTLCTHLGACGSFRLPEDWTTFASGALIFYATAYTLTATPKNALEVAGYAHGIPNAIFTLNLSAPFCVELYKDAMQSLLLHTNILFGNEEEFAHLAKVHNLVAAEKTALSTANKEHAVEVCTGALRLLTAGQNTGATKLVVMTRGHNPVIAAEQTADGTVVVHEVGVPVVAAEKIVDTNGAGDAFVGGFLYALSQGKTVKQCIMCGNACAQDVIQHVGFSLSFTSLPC
# Procedure: Preparation of cytosol extracts. For the structure activity relationships studies, approximately 5×10^8 T. gondii were suspended in 1.2 ml of 50 mM N-2-hydroxyethylpiperazine-N'-2-ethanesulfonic acid (HEPES)-Cl (pH 8.0)/1 mM dithiothreitol and homogenized for 30 seconds at setting 10, using a Brinnmann Instruments Polytron homogenizer fitted with a PTA 7K1 probe. The homogenate was then centrifuged at approximately 116,000 g for 1 hour at 5° and the supernatant (cytosol extract) collected and used as the enzyme source. Fresh cytosol extracts were prepared for each experiment.
# Adenosine kinase assay. T. gondii adenosine kinase activity was measured by following the formation of [^14 C]AMP from [^14 C]adenosine and ATP. […] Therefore, the standard reaction mixture contained 50 mM HEPES-Cl (pH 8.0), 1 mM dithiothreitol, 5 μM [8-^14 C]adenosine (45 Ci/mol), 0.5 mM ATP, 0.5 mM MgCl2, 25 μM (+)-EHNA or 100 μM (±)-EHNA,10-30 μl of cytosol extract (approximately 3-10 μg of protein), and either 0, 0.1, 0.25, 0.5 or 1.0 mM of the compound to be tested, in a final volume of 150 μl.
# Reactions were started by the addition of [8-^14 C]adenosine, incubated at 37° for 10 minutes and terminated by placing the reaction tubes in a boiling water bath for 2 minutes. Precipitated proteins were removed by centrifugation in a microcentrifuge (approximately 13,000 g) for 5 minutes, and a 15 μl aliquot of the resulting supernatant was mixed with 5 μl of a solution containing 10 mM each of AMP and adenosine. This mixture was then spotted on silica gel thin layer chromatography plates which were developed with a mixture of chloroform/methanol/acetic acid (16:3:1). […] The substrate and product spots (which accounted for all of the radioactivity on the plates) were identified by UV quenching, cut out, and the radioactivity quantitated by liquid scintillation counting in 20 ml of Scintilene, using a Packard 460 scintillation counter. […] Enzyme velocity was calculated by multiplying the fraction of AMP formed from adenosine times the amount of adenosine in the assay, and dividing by the incubation time.
# Determination and significance of AppKi values. AppKi values were used to determine the relative degree of binding of compounds to adenosine kinase as compared to adenosine. AppKi values were estimated from Dixon plots of the data (1/.nu. versus [I]), using a computer program with least squares fitting according to the general principles of Cleland (Cleland, W W, The statistical analysis of enzyme kinetic data. Adv. Enzymol. 29:1-32, 1967). The program was written by Dr. Sungman Cha (Brown University, Providence, R.I.) and modified to fit IBM BASIC by Dr. Fardos N. M. Naguib. […] It should be noted, however, that the type of inhibition (i.e., competitive, noncompetitive, or uncompetitive) produced by the compounds was not determined, nor were the compounds evaluated as substrates for T. gondii adenosine kinase.
smiles,measurement,setting,value
[N-]=[N+]=Nc1ccc(CNc2ncnc3c2ncn3[C@@H]2O[C@H](CO)[C@@H](O)[C@H]2O)cc1,"Effect on T. gondii grown in human fibroblasts, in words",[1],promising
O=[N+]([O-])c1ccc(CNc2ncnc3c2ncn3[C@@H]2O[C@H](CO)[C@@H](O)[C@H]2O)cc1,"Effect on T. gondii grown in human fibroblasts, in words",[1],promising
"O=c1[nH]c(=O)c2nc[nH]c2[nH]1 [Compound 4, 2-Oxohypoxanthine (xanthine)]",Type of inhibition of GPRTase,T. gondii GPRTase,competitive inhibitors
"Nc1ncnc2[nH]cnc12 [Compound 7, 6-Aminopurine (adenine)]","Effect on the phosphorylation of NBMPR, in words",[2]; 1 mM,no effect
"O=c1[nH]cnc2c1ncn2[C@@H]1O[C@H](CO)[C@@H](O)[C@H]1O [Compound 15, 6-Oxopurine riboside (inosine)]","Effect on the formation of NBMPR-P from NBMPR, in words",[2],minimal effect
"O=[N+]([O-])c1ccc(CSc2ncnc3c2ncn3[C@@H]2O[C@H](CO)[C@@H](O)[C@H]2O)cc1 [Compound 21, 6-(p-Nitrobenzyl)mercaptopurine riboside (NBMPR)]","Effect on T. gondii grown in human fibroblasts, in words",[1],inhibited; also recorded: kill T. gondii grown in human fibroblasts in a dose dependent manner; also recorded: effectively eliminate T. gondii parasites
same,"% Inhibition of phosphorylation of adenosine, T. gondii",[3]; 10 μM,3.4%
same,"% Inhibition of phosphorylation of adenosine, T. gondii",[3]; 25 μM,37.7%
same,"% Inhibition of phosphorylation of adenosine, T. gondii",[3]; 50 μM,56.0%
same,Percent inhibition of formation of nucleoside 5'-monophosphate from adenosine,[3]; NBMPR 10 μM,77%
same,Percent inhibition of formation of nucleoside 5'-monophosphate from inosine,[3]; NBMPR 10 μM,15%
same,Percent inhibition of formation of nucleoside 5'-monophosphate from adenosine,[3]; NBMPR 100 μM,100%
same,Percent inhibition of formation of nucleoside 5'-monophosphate from inosine,[3]; NBMPR 100 μM,19%
same,Percent inhibition of formation of nucleoside 5'-monophosphate from adenosine,[3]; NBMPR 1000 μM,100%
same,"% Inhibition of phosphorylation of adenosine, Human Liver",[4]; 10 μM,0%
same,"% Inhibition of phosphorylation of adenosine, Human Liver",[4]; 25 μM,0%
same,"% Inhibition of phosphorylation of adenosine, Human Liver",[4]; 50 μM,0%
same,"% Inhibition of phosphorylation of adenosine, Mouse Liver",[5]; 10 μM,0%
same,"% Inhibition of phosphorylation of adenosine, Mouse Liver",[5]; 25 μM,0%
same,"% Inhibition of phosphorylation of adenosine, Mouse Liver",[5]; 50 μM,0%
"OC[C@H]1O[C@@H](n2cnc3c(NCc4ccccc4)ncnc32)[C@H](O)[C@@H]1O [Compound 45, N^6 -Benzyladenosine]","Effect on T. gondii grown in human fibroblasts, in words",[1],promising
"Nc1ncnc2c1ncn2[C@@H]1O[C@H](CCl)[C@@H](O)[C@H]1O [Compound 95, 5'-Chloro-5'-deoxyadenosine]",Decrease in binding to T. gondii adenosine kinase,[6],≥ 30 fold
"CSC[C@H]1O[C@@H](n2cnc3c(N)ncnc32)[C@H](O)[C@@H]1O [Compound 98, 5'-Methylthio-5'-deoxyadenosine]",Decrease in binding to T. gondii adenosine kinase,[6],≥ 30 fold
"Nc1ncnc2c1ncn2[C@@H]1O[C@H](COC(=O)CCC(=O)O)[C@@H](O)[C@H]1O [Compound 100, 5'-Succinyladenosine (adenosine 5'-succinate)]",Decrease in binding to T. gondii adenosine kinase,[6],≥ 30 fold
"CC(C)CC[C@H]1O[C@@H](n2cnc3c(N)ncnc32)[C@H](O)[C@@H]1O [Compound 101, 5'-Isobutyl-5'-deoxyadenosine]",Decrease in binding to T. gondii adenosine kinase,[6],≥ 30 fold
"Nc1ncnc2c1ncn2[C@H]1CC[C@@H](CO)O1 [Compound 106, 2',3'-Dideoxyadenosine]",Decrease in binding to T. gondii adenosine kinase,[6],≥ 30 fold
